Source: ChEMBL document CHEMBL4888484, “Replenishing the malaria drug discovery pipeline: Screening and hit evaluation of the MMV Hit Generation Library 1 (HGL1) against asexual blood stage Plasmodium falciparum ,using a nano luciferase reporter read-out” (2022)
Several values for one entry are separate records, joined by “and”; a condition that tells them apart may be missing. Equal values may be shown once. Among all 150,000 compounds or so, about 540 (0.36%) showed an effect of 50% or more. This is one part of the list.

Test system: Plasmodium falciparum
Experiment: Primary screen in NF54 nanoGlo assay, in single point, at 2uM, 72h; a lower Z score goes with more inhibition
Format: functional, Erythrocyte
Settings: timepoint 72 hour

| SMILES | % Inhibition [%] | Z score | % Inhibition (2 µM) | Z score (2 µM) |
| --- | --- | --- | --- | --- |
| O=C1CC[C@H](COC(=O)c2cc(-c3ccc(F)cc3)on2)N1 | -1 | 0.22 |  |  |
| COc1cccc(-c2cc3n(C)c(C)c(CCC(=O)N4CCCC4)c(=O)n3n2)c1 | -1 | 0.15 |  |  |
| Cn1ncc(Br)c1C(=O)N1CCC[C@H]1c1cccc(F)c1 | -9 | 1.81 |  |  |
| COc1ccc(CN2C(=O)N(Cc3c(F)cccc3Cl)c3ccccc3S2(=O)=O)cc1 | -8 | 0.92 |  |  |
| CC(=O)N(c1nc(Cn2ccnn2)cs1)C1CC1 | -2 | 0.38 |  |  |
| Cn1cc([C@@H]2C[C@H]2C(=O)NCc2ccc(N3CCCS3(=O)=O)c(F)c2)cn1 | -4 | 0.41 |  |  |
| O=C(COc1ccccc1)N1CCCCCCC1 | -6 | 1.22 |  |  |
| CN1C(=O)c2ccc(NC(=O)c3cc4c(s3)CCCCC4)cc2C1=O | -14 | 2.3 |  |  |
| CCc1cc([C@H](C)NC(=O)c2cn(CC)nc2C)on1 | -9 | 0.85 |  |  |
| C[C@@]1(C(=O)NC2CCCC2)COc2c(oc3ccccc23)C(=O)N1Cc1cccc(F)c1 | -6 | 0.61 |  |  |
| COC1CCN(c2nc(C#N)c(Cl)s2)CC1 | -12 | 1.47 |  |  |
| CCC(Cc1ccc(C(F)(F)F)cc1)C(=O)N[C@@H]1C=C[C@H](CO)C1 (some centres not stated) | -18 | 1.78 |  |  |
| CC(C)(C)OC(=O)NCc1cccc(CN)c1 | 0 | 0.07 |  |  |
| CC(C)(C)c1ccc(NC(=O)CCn2ccc(=O)[nH]c2=O)cc1 | -10 | 1.09 |  |  |
| CC(C)CN1CCCC1C(=O)N1CCO[C@H]2CCC[C@H]21 (some centres not stated) | -5 | 0.92 |  |  |
| CCC(C)C(C)C(=O)N(C)CCN(C)C(=O)C12CC(C(C)(C)C)(C1)C2 (configuration not stated) | -6 | 0.85 |  |  |
| O=C([C@H]1CCCN(c2ccncc2F)C1)N1CCCC1 | -6 | 0.56 |  |  |
| CC(C)CCNC(=O)CN1C(=O)[C@H](C)NC(=O)c2ccccc21 | -8 | 0.94 |  |  |
| CC(C)=CCN1CCC(Oc2ccc(C)cc2)(C(=O)O)CC1 | 3 | -0.56 |  |  |
| COC1(C)CCCN(C(=O)NC(C)CCc2ccc(C)o2)CC1 (configuration not stated) | -17 | 2.13 |  |  |
| CC(C)N(CCC(=O)NCc1ccccc1)c1nc(C2CC2)nc2cc(Cl)ccc12 | -11 | 2.15 |  |  |
| CCOc1ccccc1C(=O)N1CC2(C[C@@H](C(=O)NC(C)C)N(C)C2)C1 | -17 | 2.02 |  |  |

| SMILES | % Inhibition [%] | Z score | % Inhibition (2 µM) | Z score (2 µM) |
| --- | --- | --- | --- | --- |
| CCCN(C)c1nccn2c(=O)n(CC(=O)Nc3cccc(C(C)=O)c3)nc12 | -4 | 0.52 |  |  |
| Cc1ccccc1N1CCN(S(=O)(=O)CC2CCOCC2)CC1 | -8 | 1.51 |  |  |
| CC(C)S(=O)(=O)N(C)C(=O)c1cccs1 | -14 | 2.31 |  |  |
| Cc1nn(C)c(C)c1S(=O)(=O)NC(=O)CC1CC2CCC1C2 (configuration not stated) | -7 | 1.23 |  |  |
| COc1cc2c(cc1CC#N)CCC(C)(C)O2 | 5 | -0.59 |  |  |
| c1ccc(-c2c[nH]c3c(N4CCCCC4)ncnc23)cc1 | 32 | -3.58 |  |  |
| Cc1ccnc(N2CCOc3ccccc3C2)n1 | -13 | 1.69 |  |  |
| COc1ccc(S(=O)(=O)N2CCc3nn(C)c(=O)n3CC2)cc1Cl | -20 | 2.62 |  |  |
| CCCc1noc([C@H](C)OC(=O)c2cccc(OC)c2O)n1 | -6 | 0.55 |  |  |
| CC(C)(C)n1cc(CNc2ncc(F)cc2Br)nn1 | 17 | -1.97 |  |  |
| CC(C)n1cc(C(=O)N(C)[C@@H](C)c2cncs2)cn1 | 0 | 0.02 |  |  |
| O=C(Nc1ccc(Cl)cc1)N1Cc2nc[nH]c2C[C@H]1c1nc(-c2ccncc2)no1 | -15 | 2.86 |  |  |
| Cc1cc(CS(=O)(=O)CCCN2C(=O)NC(C)(C)C2=O)no1 | -17 | 1.56 |  |  |
| Cc1cc(NC(=O)c2ccccc2C(=O)c2ccc(Cl)cc2)no1 | -29 | 3.38 |  |  |
| CCS(=O)(=O)NCCNc1cccc(C)n1 | -5 | 0.69 |  |  |
| O=C(c1ccc2nc(-c3ccc(F)cc3)cn2c1)N1C[C@@H]2[C@H](C1)[C@H]1CC[C@@H]2O1 | -7 | 1.1 |  |  |
| O=C(NCCn1nc(-n2cncn2)ccc1=O)Nc1cc(Cl)ccc1Cl | 8 | -1.26 |  |  |
| CC(C)(C)OC(=O)Nc1cnc(-c2ccccc2)s1 | -10 | 2.05 |  |  |
| O=C(NC1CCCCC1)N1CCCCC[C@@H]1CN1CCCC1 | -8 | 1.3 |  |  |
| COc1ccc(Cl)cc1S(=O)(=O)N(C)c1cnccn1 | -1 | 0.25 |  |  |
| Cc1ccc(NC[C@H]2CCN(Cc3nc(-c4ccccc4)no3)C2)nc1 | -12 | 1.29 |  |  |
| O=C(c1cnn(CCF)c1)N1CC(Cc2ccoc2)C1 | -12 | 1.93 |  |  |

| SMILES | % Inhibition [%] | Z score | % Inhibition (2 µM) | Z score (2 µM) |
| --- | --- | --- | --- | --- |
| Cc1ccc(OCc2nc(C)c(C(=O)Nc3nnc(C4CC4)s3)s2)cc1C | -4 | 0.54 |  |  |
| CC1CC(N(C)Cc2ccccc2Cl)C(=O)O1 (configuration not stated) | 0 | 0.04 |  |  |
| CS(=O)(=O)c1ccc(-c2nc(CN3CCCCC[C@@H]3CCO)cs2)cc1 | 9 | -1.52 |  |  |
| Cc1nc(C)c(CN(C)C2CCS(=O)(=O)CC2)s1 | 12 | -1.23 |  |  |
| C[C@@H](c1ccc(F)cc1)S(=O)(=O)CC(N)=O | -11 | 2.22 |  |  |
| CC1CC(C)CN(C2CCN(C(=O)c3cccs3)CC2)C1 (configuration not stated) |  |  | 2% and 1% | -0.22 and -0.14 |
| Cc1cc(C(=O)NCC2(NC(=O)OC(C)(C)C)CCCCCC2)on1 | -1 | 0.15 |  |  |
| CCn1cc(C)c(C(=O)O)c1CC(=O)Nc1cc(C)cc(C)c1 | 5 | -0.6 |  |  |
| Cc1ccc(-c2nc3cccc(C)n3c2Nc2ccc3c(c2)OCCO3)o1 | 1 | -0.1 |  |  |
| COc1ccc(F)cc1C(NC(=O)CCc1cc(O)no1)[C@H]1C[C@H](O)C1 (some centres not stated) | -6 | 1.03 |  |  |
| O=C1NC2(CCCC2)C(=O)N1CCNc1ccn(-c2ccccc2)n1 | -12 | 1.76 |  |  |
| Cc1c(-c2cc(C(=O)NCCc3ccc4c(c3)OCO4)no2)cnn1C | -6 | 0.74 |  |  |
| Cc1nc(C)c(C)c(N(C)CC2(CO)CCC2)n1 | -11 | 1.41 |  |  |
| O=C(Cn1cnnn1)N1CCC(F)(c2ccc(Cl)cc2)CC1 | -10 | 1.98 |  |  |
| COC[C@]1(C(=O)O)CCN(c2ccnc(N(C)C)n2)C1 | -15 | 2.91 |  |  |
| Cc1cc(C)n(CCN(C)C(=O)Cc2ccc3[nH]c(C)nc3c2)n1 | -8 | 1.3 |  |  |
| CC(=O)Oc1c(-c2ccc(NC(=O)c3ccc(F)cc3)cc2)c(C2CC2)nn1-c1cccc(C)c1 | -6 | 0.71 |  |  |
| Cc1cc(C)nc(NC(=O)c2sc(C)nc2CC(C)C)n1 | -26 | 3.1 |  |  |
| COc1ccc(CC(=O)NCC2(c3ccncc3)CC2)cc1 | 6 | -0.87 |  |  |
| Cc1nncn1CCN1CCN(C(=O)c2ccccc2)CC1 | -19 | 2.42 |  |  |
| Cc1cc(C)c2c(N3CCCC3)nc(C(=O)N3CCN(C(C)C)CC3)nc2n1 | -9 | 1.45 |  |  |
| Cc1cccc(Cl)c1N1C(=O)N[C@]2(CCOC2)C1=O | 0 | 0.02 |  |  |

| SMILES | % Inhibition [%] | Z score | % Inhibition (2 µM) | Z score (2 µM) |
| --- | --- | --- | --- | --- |
| CN(CC1CCc2ccccc21)C(=O)[C@@H]1CS(=O)(=O)CC(=O)N1 (some centres not stated) | -6 | 1.26 |  |  |
| CCNS(=O)(=O)c1cc(-c2c(CC)noc2NC(C)=O)ccc1C | -3 | 0.41 |  |  |
| CC[C@@H](CO)NC(=O)Nc1ccc(F)cc1C#N | -2 | 0.2 |  |  |
| Cc1ccc(CNCc2cnn(C)c2)c(OCC2CC2)c1 | 2 | -0.29 |  |  |
| Nc1c2c(-c3cccc(Cl)c3)nc(NCCN3CCOCC3)nc2nn1-c1ccccc1Cl | -18 | 2.37 |  |  |
| O=S1(=O)CCc2cc(CN[C@H]3CCOC34CCCC4)ccc21 | -2 | 0.52 |  |  |
| O=C(NCCNc1cccc(Br)c1)[C@@H]1CCCO1 | 0 | -0.03 |  |  |
| Cn1cc(-c2ccc(=O)n([C@H]3CCC(C)(C)C3)n2)cn1 | -18 | 1.94 |  |  |
| CCN1CCO[C@H](C(=O)N2CCC(c3nc(N(C)C)no3)CC2)C1 | -36 | 4.21 |  |  |
| CC1CCCC(N(C)C(=O)NCCCC(C)(C)CO)C1 (configuration not stated) | 3 | -0.23 |  |  |
| O=C1COc2ccccc2N1Cc1nc(-c2ccc(N3CCOCC3)cc2)no1 | -19 | 2.51 |  |  |
| COCCNC(=O)c1cc2cc(NC(=O)c3ccc(C(C)(C)C)cc3)ccc2n1Cc1cccc(F)c1 | -2 | 0.31 |  |  |
| O=C(COC[C@H]1CCCCO1)N1CCN(c2ncc[nH]c2=O)CC1 | -7 | 1 |  |  |
| CCOc1ccc(CCNC(=O)c2nn(-c3ccccc3)c(=O)n(C)c2=O)cc1OCC | -10 | 0.91 |  |  |
| COc1ccc(CCNc2oc(-c3cccnc3)nc2C#N)cc1OC | 34 | -5.48 |  |  |
| O=C(NCc1nc(CN2CCCCC2)no1)c1cccc(F)c1O | -4 | 0.69 |  |  |
| CCC1CC(C(=O)N2CCCC2CC(O)c2cccs2)CCO1 (configuration not stated) | -11 | 1.15 |  |  |
| Cc1cc(CN(C)Cc2oc3ccccc3c2C)on1 | -8 | 0.8 |  |  |
| Cc1cc(C(=O)N[C@@H](CC(C)C)c2ncnn2C)nc(C)n1 | -6 | 0.86 |  |  |
| CCCNc1ccccc1C(=O)N1CCC2(CC1)CN(C)CCN2C | -10 | 1.35 |  |  |
